Experimental data as given in the GPR68 mutational scans of Howard et al. (2025).
Scores whose standard error is large were omitted. Not listed are two conditions whose scores span a narrow range. Names with del lack the residues named; names with ins carry added residues between the positions named. For some assays here: The concentration of ogerin is not given here.

B1: GPR68, Q15743 (parent)
chain: MGNITADNSSMSCTIDHTIHQTLAPVVYVTVLVVGFPANCLSLYFGYLQIKARNELGVYLCNLTVADLFYICSLPFWLQYVLQHDNWSHGDLSCQVCGILLYENIYISVGFLCCISVDRYLAVAHPFRFHQFRTLKAAVGVSVVIWAKELLTSIYFLMHEEVIEDENQHRVCFEHYPIQAWQRAINYYRFLVGFLFPICLLLASYQGILRAVRRSHGTQKSRKDQIQRLVLSTVVIFLACFLPYHVLLLVRSVWEASCDFAKGVFNAYHFSLLLTSFNCVADPVLYCFVSETTHRDLARLRGACLAFLTCSRTGRAREAYPLGAPEASGKSGAQGEEPELLTKLHPAFQTPNSPGSGGFPTGRLA

Tests used:
[1] = variants of: B1; assay: cAMP reporter score (Enrich2 score, wild type = 0); higher = more signal; HEK293T, FACS bins
[2] = variants of: B1; assay: surface expression score (Enrich2 score, wild type = 0); higher = more signal; HEK293T, FACS bins

Variant | cAMP reporter score ([1]; pH 5.5) | cAMP reporter score ([1]; pH 6) | cAMP reporter score ([1]; pH 6, modulator: ogerin) | cAMP reporter score ([1]; pH 6.5, modulator: ogerin) | surface expression score [2]
W87_S88insGS | -1.59 | -1.36 | -2.06 | -0.493 | -1.29
S88_H89insG | -1.03 | -0.09 |  | -0.768 | -0.128
V81del | -1.57 | -0.555 | -0.985 | -1.3 | 1.42
L82_Q83insGSG | -1.66 | -0.96 | -1.76 | -1.48 | -0.29
Y80S | -1.62 | -1.47 | -1.99 | -1.64 | 0.205
Y80W | -1.52 | -1.05 | -2.57 | -1.56 | -0.434
Y80R | -0.871 | 0.014 | -1.26 | -0.868 | 1.1
Y80M | -1.26 | -0.656 | -2.23 | -0.912 | 1.33
Y80T | -1.25 | -0.435 | -1.02 | -0.653 | 0.407
Y80L | -1.74 | -1.06 | -0.32 | -0.376 | -0.904
Y80P | -1.59 | -0.929 | -1.7 | -0.903 | -0.743
Y80Q | -1.68 | -1.02 | -3.42 | -2.15 | 0.302
Y80K | -1.32 | -1.23 | -1.68 | -1.17 | 0.752
Y80V | -1.8 | -0.366 | -1.7 | -0.617 | -1.24
Y80N | -1.47 | -0.382 | -0.97 | -0.695 | 2.58
Y80I | -2.13 | -1.33 | -0.989 | -1.49 | -1.23
Y80del | -1.7 | -1.21 | -2.42 | -1.34 | -1.36
L92Q | -0.578 | -1.44 | -1.11 | -1.49 | -0.786
L92A | 0.174 | -0.189 | 0.448 | -0.372 | -0.147
L92K | 0.352 | 0.77 | 0.019 | -0.32 | 0.365
L92G | 0.492 | -0.401 | 0.401 | -0.878 | -0.332

Variant | cAMP reporter score ([1]; pH 5.5) | cAMP reporter score ([1]; pH 6) | cAMP reporter score ([1]; pH 6, modulator: ogerin) | cAMP reporter score ([1]; pH 6.5, modulator: ogerin) | surface expression score [2]
L92D | -0.847 | -1.6 | -1.05 | -0.886 | -2.02
L92I | 0.565 | -0.637 | 1.63 | 0.386 | 1.9
L92N | -0.747 | -1.32 | -1.5 | -1.2 | -0.993
L92H | -0.353 | -0.417 | -0.461 | 1.26 | -1.07
L92Y | 0.814 | -0.492 | 0.15 | -0.186 | 0.853
L92M | -0.546 | -0.432 | -0.49 | -1.03 | -0.63
L92P | 0.088 | -0.276 | -0.56 | -0.439 | 0.193
L92S | -0.438 | 0.439 | -1.06 | -0.972 | -0.989
L92F | -0.157 | 0.226 | -0.211 | 0.757 | -0.752
L92W | 2.66 | 3.94 | 2.43 | 3.59 | 3.34
L92V | -0.415 | -0.969 | -0.685 | -0.806 | -0.794
L92C | 0.154 | -1.14 | -1.12 |  | -0.116
L92T | 0.267 | -0.768 | -0.339 | -0.045 | 0.444
L92R | -0.597 | -1.65 | -1.06 | -1.03 | -0.067
W87_S88insG | -1.51 | -0.454 | -0.578 | -0.872 | -1.26
V81_L82del | -1.29 | -1.23 | -1.68 | -1.54 | 0.251
G90_L92del | -2.02 | -1.1 | -0.226 |  | -0.887
S93_C94insG | -0.404 | -0.634 |  | -1.3 | -3.35
W87_H89del | -1.75 | -0.61 | -1.04 | -1.3 | -1.39
H84del | -0.112 | -0.6 | -0.974 | -1.05 | 1.51
D85_N86insGS | -1.82 | -0.725 | -2.13 | -1.78 | -0.484

Variant | cAMP reporter score ([1]; pH 5.5) | cAMP reporter score ([1]; pH 6) | cAMP reporter score ([1]; pH 6, modulator: ogerin) | cAMP reporter score ([1]; pH 6.5, modulator: ogerin) | surface expression score [2]
H84W | -0.849 | -0.797 | -1.04 | -1.22 | -0.721
H84Q | 0.592 | -0.032 | 0.297 | -0.445 | 0.951
H84E | 0.712 | 0.004 | 1.4 |  | 1.15
H84F | -0.396 | 0.082 | 0.09 | -0.58 | 
H84N | -0.366 |  | -0.557 | 0.168 | -0.547
H84P | -2.07 | -0.954 | -2.3 | -1.12 | 1.67
H84A | 0.364 | -1.22 | 0.136 | -0.589 | 1.16
H84S | 0.44 | -0.61 | 0.168 | 0.066 | 0.357
H84T | 0.517 | -0.023 | -1.61 | -0.248 | 1.28
H84D | 0.301 | 3.85 | 1.01 | 3.52 | 1.7
H84I | -1.13 | -0.444 | -1.91 | -1.2 | -0.906
H84C | -0.637 |  | -0.139 |  | -2.13
H84L | -1.32 | -0.7 | -1.19 | -1.54 | -1.14
H84K | -0.162 | -1.31 | -0.933 | -1.19 | 0.597
H84G | 0.302 | 0.947 | 0.708 | 1.01 | 0.861
H84Y | 0.284 | -0.702 | 0.15 | -0.858 | -0.575
H84R | 0.557 | -0.88 | -0.382 | -0.725 | 2
H84V | -0.873 | -0.838 | -2.05 | -0.97 | -0.062
H84M | -0.292 | -0.54 | -0.921 | -1.05 | -0.666
